Data: the supplement of paper PMC8728848
This is one part of the list.

Tests used:
Experiment in all cases: glycan array binding signal (z-score within array); higher = stronger binding
Settings in all cases: glycan notation: IUPAC condensed, linker removed
Gal4S6S(b1-4)GlcNAc = molecular target: Gal4S6S(b1-4)GlcNAc
How it was run: (§1)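 Glycan array data were curated from 3228 arrays in the Consortium for Functional Glycomics database and kept only where the protein sequence was available. Glycan names were converted to IUPAC-condensed notation, and columns mapping to the same glycan were averaged. The binding signal is a within-array Z-score, averaged across arrays of the same protein sequence at different concentrations or buffers and across linkers. Negative Z-scores can be read as non-binding.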

Gal6S(b1-4)Glc = molecular target: Gal6S(b1-4)Glc
How it was run: as §1

Gal6S(b1-4)Glc6S = molecular target: Gal6S(b1-4)Glc6S
How it was run: as §1

Gal6S(b1-4)GlcNAc = molecular target: Gal6S(b1-4)GlcNAc
How it was run: as §1

GalNAc(a1-3)Gal = molecular target: GalNAc(a1-3)Gal
How it was run: as §1

GalNAc(a1-3)GalNAc = molecular target: GalNAc(a1-3)GalNAc
How it was run: as §1

[1] = molecular target: GalNAc(b1-3)Gal(a1-4)Gal(b1-4)GlcNAc
How it was run: as §1

GalNAc(b1-3)GalNAc = molecular target: GalNAc(b1-3)GalNAc
How it was run: as §1

GalNAc(b1-4)GlcNAc = molecular target: GalNAc(b1-4)GlcNAc
How it was run: as §1

Glc(a1-4)Glc = molecular target: Glc(a1-4)Glc
How it was run: as §1

Glc(a1-6)Glc(a1-6)Glc = molecular target: Glc(a1-6)Glc(a1-6)Glc
How it was run: as §1

Glc(b1-4)Glc = molecular target: Glc(b1-4)Glc
How it was run: as §1

Glc(b1-6)Glc = molecular target: Glc(b1-6)Glc
How it was run: as §1

GlcA(b1-3)Gal = molecular target: GlcA(b1-3)Gal
How it was run: as §1

GlcA(b1-6)Gal = molecular target: GlcA(b1-6)Gal
How it was run: as §1

[2] = molecular target: GlcNAc(a1-3)Gal(b1-4)GlcNAc
How it was run: as §1

[3] = molecular target: GlcNAc(a1-6)Gal(b1-4)GlcNAc
How it was run: as §1

[4] = molecular target: GlcNAc(b1-2)Gal(b1-3)GalNAc
How it was run: as §1

[5] = molecular target: GlcNAc(b1-2)Man(a1-3)[GlcNAc(b1-2)Man(a1-6)]Man(b1-4)GlcNAc(b1-4)GlcNAc
How it was run: as §1

GlcNAc(b1-3)Gal = molecular target: GlcNAc(b1-3)Gal
How it was run: as §1

[6] = molecular target: GlcNAc(b1-3)Gal(b1-3)GalNAc
How it was run: as §1

GlcNAc(b1-3)Gal(b1-4)Glc = molecular target: GlcNAc(b1-3)Gal(b1-4)Glc
How it was run: as §1

[7] = molecular target: GlcNAc(b1-3)Gal(b1-4)GlcNAc
How it was run: as §1

[8] = molecular target: GlcNAc(b1-3)Gal(b1-4)GlcNAc(b1-3)Gal(b1-4)GlcNAc
How it was run: as §1

GlcNAc(b1-3)GalNAc = molecular target: GlcNAc(b1-3)GalNAc
How it was run: as §1

[9] = molecular target: GlcNAc(b1-3)[GlcNAc(b1-6)]Gal(b1-4)GlcNAc
How it was run: as §1

[10] = molecular target: GlcNAc(b1-3)[GlcNAc(b1-6)]GalNAc
How it was run: as §1

[11] = molecular target: GlcNAc(b1-3)[GlcNAc(b1-6)]GlcNAc(b1-4)GlcNAc
How it was run: as §1

[12] = molecular target: GlcNAc(b1-4)Gal(b1-4)GlcNAc
How it was run: as §1

[13] = molecular target: GlcNAc(b1-4)GlcNAc(b1-4)GlcNAc
How it was run: as §1

[14] = molecular target: GlcNAc(b1-4)GlcNAc(b1-4)GlcNAc(b1-4)GlcNAc(b1-4)GlcNAc
How it was run: as §1

[15] = molecular target: GlcNAc(b1-4)GlcNAc(b1-4)GlcNAc(b1-4)GlcNAc(b1-4)GlcNAc(b1-4)GlcNAc
How it was run: as §1

[16] = molecular target: GlcNAc(b1-4)[GlcNAc(b1-6)]GalNAc
How it was run: as §1

[17] = molecular target: GlcNAc(b1-6)Gal(b1-4)GlcNAc
How it was run: as §1

GlcNAc(b1-6)GalNAc = molecular target: GlcNAc(b1-6)GalNAc
How it was run: as §1

Kdn(a2-3)Gal(b1-3)GlcNAc = molecular target: Kdn(a2-3)Gal(b1-3)GlcNAc
How it was run: as §1

Kdn(a2-3)Gal(b1-4)GlcNAc = molecular target: Kdn(a2-3)Gal(b1-4)GlcNAc
How it was run: as §1

[18] = molecular target: Man(a1-2)Man(a1-2)Man(a1-3)Man
How it was run: as §1

[19] = molecular target: Man(a1-2)Man(a1-2)Man(a1-6)[Man(a1-3)]Man
How it was run: as §1

Man(a1-2)Man(a1-3)Man = molecular target: Man(a1-2)Man(a1-3)Man
How it was run: as §1

[20] = molecular target: Man(a1-2)Man(a1-3)[Man(a1-2)Man(a1-6)]Man
How it was run: as §1

[21] = molecular target: Man(a1-2)Man(a1-3)[Man(a1-2)Man(a1-6)]Man(a1-6)[Man(a1-2)Man(a1-2)Man(a1-3)]Man(b1-4)GlcNAc(b1-4)GlcNAc
How it was run: as §1

[22] = molecular target: Man(a1-2)Man(a1-3)[Man(a1-6)]Man(a1-6)[Man(a1-2)Man(a1-3)]Man(b1-4)GlcNAc(b1-4)GlcNAc
How it was run: as §1

[23] = molecular target: Man(a1-2)Man(a1-6)[Man(a1-3)]Man(a1-6)[Man(a1-2)Man(a1-2)Man(a1-3)]Man(b1-4)GlcNAc(b1-4)GlcNAc
How it was run: as §1

Man(a1-3)[Man(a1-6)]Man = molecular target: Man(a1-3)[Man(a1-6)]Man
How it was run: as §1

[24] = molecular target: Man(a1-3)[Man(a1-6)]Man(a1-6)[Man(a1-2)Man(a1-3)]Man(b1-4)GlcNAc(b1-4)GlcNAc
How it was run: as §1

[25] = molecular target: Man(a1-3)[Man(a1-6)]Man(a1-6)[Man(a1-3)]Man(b1-4)GlcNAc(b1-4)GlcNAc
How it was run: as §1

[26] = molecular target: Man(a1-3)[Man(a1-6)]Man(b1-4)GlcNAc(b1-4)GlcNAc
How it was run: as §1

Man(b1-4)GlcNAc = molecular target: Man(b1-4)GlcNAc
How it was run: as §1

Neu5Ac(a2-3)Gal = molecular target: Neu5Ac(a2-3)Gal
How it was run: as §1

[27] = molecular target: Neu5Ac(a2-3)Gal(b1-3)GalNAc
How it was run: as §1

[28] = molecular target: Neu5Ac(a2-3)Gal(b1-3)GalNAc(b1-3)Gal(a1-4)Gal(b1-4)Glc
How it was run: as §1

B1: F4 (Escherichia coli), A0A6L9DDF0 (protein)
chain: MKKTLIALALAASAVSGMAHAWTSGDFNGTVDIGGSIDATNYRQKWEWEVGTGLNGFYNALSELTNNDTKLTITVTGNKPILLGRTKEAFVTPTAGGWGGIPQIAFTDYKGAPVELKNPDGETNKGLAYFVLPMKNADGTEAGSVRVNASYAGAVVEKTSDSSAKLFSAYAGEVIRIFNGGLPVNVTQSELQSGVAAADRTALFGSLGKADLVAQFQAVIPGATVTDGTSSEHCTMRLLASAAYALGIADGQTIEATFNQAVTTSTQWSAPLNVAITYY
For B1, which “glycan array binding signal (z-score)” value (Gal4S6S(b1-4)GlcNAc) is on record?
Its value is 0.285.

And the “glycan array binding signal (z-score)” value (Gal6S(b1-4)Glc)?
Its value is -0.213.

And the “glycan array binding signal (z-score)” value (Gal6S(b1-4)Glc6S)?
Its value is 0.046.

What about the “glycan array binding signal (z-score)” value (Gal6S(b1-4)GlcNAc) of the same binder?
Its value is 1.48.

What about the “glycan array binding signal (z-score)” value (GalNAc(a1-3)Gal) of the same binder?
Its value is 0.296.

What about the “glycan array binding signal (z-score)” value (GalNAc(a1-3)GalNAc) of the same binder?
The value was 0.449.

And the “glycan array binding signal (z-score)” value [1]?
Its value is -0.337.

What about the “glycan array binding signal (z-score)” value (GalNAc(b1-3)GalNAc) of the same binder?
Its value is -0.192.

And the “glycan array binding signal (z-score)” value (GalNAc(b1-4)GlcNAc)?
Its value is -0.243.

What about the “glycan array binding signal (z-score)” value (Glc(a1-4)Glc) of the same binder?
Its value is -0.118.

What about the “glycan array binding signal (z-score)” value (Glc(a1-6)Glc(a1-6)Glc) of the same binder?
The value was -0.323.

And the “glycan array binding signal (z-score)” value (Glc(b1-4)Glc)?
The value was -0.165.

What about the “glycan array binding signal (z-score)” value (Glc(b1-6)Glc) of the same binder?
Its value is -0.444.

What about the “glycan array binding signal (z-score)” value (GlcA(b1-3)Gal) of the same binder?
Its value is -0.274.

What about the “glycan array binding signal (z-score)” value (GlcA(b1-6)Gal) of the same binder?
Its value is -0.09.

What about the “glycan array binding signal (z-score)” value [2] of the same binder?
The value was 1.18.

And the “glycan array binding signal (z-score)” value [3]?
The value was -0.302.

What about the “glycan array binding signal (z-score)” value [4] of the same binder?
The value was -0.326.

What about the “glycan array binding signal (z-score)” value [5] of the same binder?
Its value is -0.332.

What about the “glycan array binding signal (z-score)” value (GlcNAc(b1-3)Gal) of the same binder?
The value was -0.074.

And the “glycan array binding signal (z-score)” value [6]?
Its value is -0.162.

What about the “glycan array binding signal (z-score)” value (GlcNAc(b1-3)Gal(b1-4)Glc) of the same binder?
The value was 8.86.

What about the “glycan array binding signal (z-score)” value [7] of the same binder?
The value was -0.028.

And the “glycan array binding signal (z-score)” value [8]?
The value was -0.244.

And the “glycan array binding signal (z-score)” value (GlcNAc(b1-3)GalNAc)?
The value was -0.325.

And the “glycan array binding signal (z-score)” value [9]?
Its value is -0.291.

And the “glycan array binding signal (z-score)” value [10]?
Its value is -0.215.

What about the “glycan array binding signal (z-score)” value [11] of the same binder?
The value was -0.103.

What about the “glycan array binding signal (z-score)” value [12] of the same binder?
The value was -0.27.

What about the “glycan array binding signal (z-score)” value [13] of the same binder?
Its value is -0.335.

And the “glycan array binding signal (z-score)” value [14]?
Its value is -0.326.

And the “glycan array binding signal (z-score)” value [15]?
The value was -0.371.

What about the “glycan array binding signal (z-score)” value [16] of the same binder?
Its value is -0.205.

What about the “glycan array binding signal (z-score)” value [17] of the same binder?
Its value is -0.304.

And the “glycan array binding signal (z-score)” value (GlcNAc(b1-6)GalNAc)?
The value was -0.365.

What about the “glycan array binding signal (z-score)” value (Kdn(a2-3)Gal(b1-3)GlcNAc) of the same binder?
The value was -0.342.

And the “glycan array binding signal (z-score)” value (Kdn(a2-3)Gal(b1-4)GlcNAc)?
The value was -0.182.

What about the “glycan array binding signal (z-score)” value [18] of the same binder?
The value was 0.121.

And the “glycan array binding signal (z-score)” value [19]?
Its value is 0.169.

What about the “glycan array binding signal (z-score)” value (Man(a1-2)Man(a1-3)Man) of the same binder?
Its value is -0.245.

And the “glycan array binding signal (z-score)” value [20]?
Its value is 0.052.

What about the “glycan array binding signal (z-score)” value [21] of the same binder?
The value was -0.311.

And the “glycan array binding signal (z-score)” value [22]?
Its value is -0.017.

What about the “glycan array binding signal (z-score)” value [23] of the same binder?
The value was 0.038.

And the “glycan array binding signal (z-score)” value (Man(a1-3)[Man(a1-6)]Man)?
Its value is -0.014.

And the “glycan array binding signal (z-score)” value [24]?
Its value is -0.167.

What about the “glycan array binding signal (z-score)” value [25] of the same binder?
The value was -0.019.

What about the “glycan array binding signal (z-score)” value [26] of the same binder?
Its value is -0.145.

What about the “glycan array binding signal (z-score)” value (Man(b1-4)GlcNAc) of the same binder?
The value was -0.39.

What about the “glycan array binding signal (z-score)” value (Neu5Ac(a2-3)Gal) of the same binder?
Its value is -0.262.

What about the “glycan array binding signal (z-score)” value [27] of the same binder?
Its value is -0.365.

And the “glycan array binding signal (z-score)” value [28]?
The value was -0.287.
